According to the supplement of paper PMC6531468:
Some of the results follow. These are enrichments in a pooled selection; single values are uncertain. Each score is taken over the longer molecules that contain the sequence shown.

How the values were obtained:
Assay in all cases: 6-mer SELEX enrichment z-score vs GST control; IMP3 is the RNA-binding protein IGF2BP3; higher = more enriched by binding
IMP3 KH1-4 = conditions: construct: KH1-4 (164-579); SELEX round: R4
Description: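 SELEX-seq with GST-tagged IMP3 KH1-4 (Pro164-Lys579) and an N40 RNA pool, round 4. 6-mer z-score of sequence-tag enrichment normalised to the corresponding GST SELEX round; RNA k-mers written as DNA (T for U).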

IMP3 RRM1-2 = conditions: construct: RRM1-2 (1-163); SELEX round: R2
Description: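 SELEX-seq with GST-tagged IMP3 RRM1-2 (Met1-Asn163) and an N40 RNA pool, round 2. 6-mer enrichment z-score normalised to GST SELEX. RNA written as DNA (T = U).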

IMP3 full-length = IMP3 full-length (UniProt O00425); conditions: construct: FL IMP3 (1-579); SELEX round: R4
Description: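 SELEX-seq with GST-tagged full-length IMP3 and an N40 RNA pool, round 4. Each 6-mer is scored as an enrichment z-score of sequence tags containing it, normalised to the matching GST SELEX round. RNA written as DNA (T = U).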

IMP3 KH1-2 = conditions: construct: KH1-2 (164-376); SELEX round: R4
Description: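 SELEX-seq with GST-tagged IMP3 KH1-2 (Pro164-Phe376) and an N40 RNA pool, round 4 (stringent 300/600 mM KCl washes). 6-mer z-score of sequence-tag enrichment normalised to the corresponding GST SELEX round; RNA k-mers written as DNA (T for U).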

IMP3 KH3-4 = conditions: construct: KH3-4 (377-579); SELEX round: R4
Description: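 SELEX-seq with GST-tagged IMP3 KH3-4 (Pro377-Lys579) and an N40 RNA pool, round 4. 6-mer z-score of sequence-tag enrichment normalised to the corresponding GST SELEX round; RNA k-mers written as DNA (T for U).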

IMP3 KH3-4, sequence (chain, as listed by the source): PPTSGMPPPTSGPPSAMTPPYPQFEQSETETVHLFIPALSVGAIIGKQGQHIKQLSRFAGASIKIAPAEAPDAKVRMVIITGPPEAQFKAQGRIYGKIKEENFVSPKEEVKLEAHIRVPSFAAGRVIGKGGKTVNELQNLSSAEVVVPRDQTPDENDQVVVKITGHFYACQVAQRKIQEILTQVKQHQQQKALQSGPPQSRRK
IMP3 KH1-2, sequence (chain, as listed by the source): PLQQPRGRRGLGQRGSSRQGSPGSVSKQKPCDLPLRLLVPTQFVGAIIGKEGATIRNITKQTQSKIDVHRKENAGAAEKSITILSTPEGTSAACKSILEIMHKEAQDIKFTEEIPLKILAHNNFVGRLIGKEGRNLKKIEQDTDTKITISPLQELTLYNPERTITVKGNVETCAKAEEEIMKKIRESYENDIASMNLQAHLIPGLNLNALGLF
UniProt O00425, sequence (O00425 whole entry): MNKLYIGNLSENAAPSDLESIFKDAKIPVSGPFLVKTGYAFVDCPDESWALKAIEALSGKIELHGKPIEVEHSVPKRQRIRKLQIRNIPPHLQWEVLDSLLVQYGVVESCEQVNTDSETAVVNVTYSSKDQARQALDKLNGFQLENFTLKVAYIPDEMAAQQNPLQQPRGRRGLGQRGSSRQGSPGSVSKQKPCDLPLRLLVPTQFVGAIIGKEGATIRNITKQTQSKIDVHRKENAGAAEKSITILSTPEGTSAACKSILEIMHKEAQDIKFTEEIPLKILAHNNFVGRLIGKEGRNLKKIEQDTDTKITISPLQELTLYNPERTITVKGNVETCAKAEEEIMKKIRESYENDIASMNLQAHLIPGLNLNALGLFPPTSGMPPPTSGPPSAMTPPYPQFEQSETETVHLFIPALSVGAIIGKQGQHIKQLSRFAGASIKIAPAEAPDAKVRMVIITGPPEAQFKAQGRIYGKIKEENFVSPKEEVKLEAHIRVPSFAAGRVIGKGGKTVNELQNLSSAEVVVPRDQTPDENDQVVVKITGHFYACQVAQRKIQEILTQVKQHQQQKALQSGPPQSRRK
IMP3 KH1-4, sequence (chain, as listed by the source): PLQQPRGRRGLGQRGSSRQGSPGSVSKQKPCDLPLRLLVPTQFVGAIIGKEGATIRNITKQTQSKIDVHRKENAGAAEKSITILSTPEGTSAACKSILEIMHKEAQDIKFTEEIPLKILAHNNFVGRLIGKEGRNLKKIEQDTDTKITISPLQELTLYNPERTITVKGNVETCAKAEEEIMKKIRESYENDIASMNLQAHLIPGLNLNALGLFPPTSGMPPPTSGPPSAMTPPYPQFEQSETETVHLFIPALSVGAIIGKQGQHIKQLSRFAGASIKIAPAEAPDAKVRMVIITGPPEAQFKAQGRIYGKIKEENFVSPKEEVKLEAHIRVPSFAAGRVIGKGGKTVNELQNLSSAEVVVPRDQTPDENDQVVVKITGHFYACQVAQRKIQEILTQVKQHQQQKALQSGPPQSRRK
IMP3 RRM1-2, sequence (chain, as listed by the source): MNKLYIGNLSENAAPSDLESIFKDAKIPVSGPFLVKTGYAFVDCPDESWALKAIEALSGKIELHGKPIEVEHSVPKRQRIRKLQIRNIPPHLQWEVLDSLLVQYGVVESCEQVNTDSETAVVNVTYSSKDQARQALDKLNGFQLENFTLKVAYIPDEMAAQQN

Sequence | 6-mer SELEX enrichment z-score (IMP3 KH1-4) | 6-mer SELEX enrichment z-score (IMP3 RRM1-2) | 6-mer SELEX enrichment z-score (IMP3 full-length) | 6-mer SELEX enrichment z-score (IMP3 KH1-2) | 6-mer SELEX enrichment z-score (IMP3 KH3-4)
AACGAC | -1.33 | -1.49 | -1.59 | -1.34 | -1.62
TCACTG | 0.761 | 0.793 | 0.724 | 0.535 | 0.256
AGGGTT | 0.209 | 0.235 | 0.224 | 0.263 | 0.43
TATGGA | 0.887 | -0.125 | 0.084 | 0.533 | 1.03
TGTTTG | 0.136 | 0.317 | -0.103 | 0.016 | 0.247
GCCCGG | -1.06 | -0.524 | -0.055 | -0.806 | -1.09
GTTTCA | -0.261 | 0.566 | 0.248 | -0.195 | -0.141
AGCTTT | 0.004 | 0.181 | 0.003 | 0.063 | 0.125
ACTGAT | 0.945 | -0.518 | -0.109 | 0.865 | 0.869
GTACGT | -0.458 | -0.027 | -0.24 | -0.477 | -0.404
ACGGTG | -0.013 | -0.049 | 0.069 | -0.108 | -0.078
TAAGCT | -0.08 | -0.082 | -0.309 | -0.113 | 0.09
CCATGC | -0.254 | 0.207 | 0.027 | -0.172 | -0.658
GAATGG | 0.737 | -0.547 | -0.07 | 0.521 | 0.898
CAGTGG | 0.466 | 0.297 | 0.685 | 0.396 | 0.36
AGGCCA | 1.01 | 0.135 | 0.816 | 0.77 | 1.2
ATATAC | 2.1 | 0.064 | 0.465 | 2.18 | 2.45
TTCCGG | 0.317 | -0.032 | 0.22 | 0.247 | 0.221
GCTTAT | 0.392 | 0.245 | 0.134 | 0.399 | 0.623
CACTCA | 0.002 | 2.7 | 0.97 | 0.091 | -0.565
